B1: CPEB3 Ribozyme (parent)
chain: UAACAGGGGGCCACAGCAGAAGCGUUCACGUCGCAGCCCCUGUCAGAUUCUGGUGAAUCUGCGAAUUCUGCUGUAUAUCUC

Read counts are not given, so values of variants with three or more changes are uncertain.

In this data set the parent is B1. Briefly: self-cleavage, relative activity (ratio to wild type); higher = more cleavage; in vitro, sequencing. The essentials: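 After error-prone PCR and barcoding, CPEB3 ribozyme mutant libraries were transcribed with T7 RNA polymerase at 37°C for 5 hours, then given 15 min with DNase I before an EDTA stop, and they cleaved during both steps. Reverse transcription with template switching preceded Illumina sequencing. Relative activity divides a variant's cleaved/total read fraction by the unmutated ribozyme's. At least 5 reads were required per variant, and three batches were averaged.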
For A21U A28U G36A C68U, the self-cleavage was determined as 0.16.
Consider A21G U31C U66C, for which the self-cleavage turned out to be 0.52.
Take G22A G24C U54A: the self-cleavage was determined as 0.13.
In the case of C23A U31A A56G U60C, the self-cleavage came out at 0.09.
With A21G U58A U78C the figure was 0.13; with U25A A57G U78A, 0.14; with C23A G36C A77G, 0.19.
Take A21G U51C U58A: the self-cleavage worked out at 0.15.
For the variant C23U A47G A75G, the self-cleavage worked out at 0.15.
In the case of A21G U31G G33A G55U C79U, the self-cleavage stood at 0.24.
The result for G22C U67C U72C A75U U78C reads 0.03; that for A21G U31G U41A, 0.49.
For the variant A21G U43G A45U G52U A64G, the self-cleavage was 0.06.
As to C23U A28G A35G U51C U72C, the self-cleavage was 0.13.
Regarding A21G U41C A45G A64G A65G, the self-cleavage amounted to 0.52.
With A21U A56G U76C the figure was 0.24; with G22A U58C U69A, 0.06; with A21G U48C G61A, 0.2.
The result for C23U A28G C34U C37U U76C reads 0.07; that for C23G U41A A56G, 0.18; that for G22A C40U U48C, 0.25.
With G24U A65G U80G the figure was 0.37; with A21G U43C A47G U72A, 0.21.
Consider C23G U41A A45U U54A A77G U78A, for which the self-cleavage stood at 0.06.
With G22U A28U C32A U69C the figure was 0.11; with U25A A35C A57U, 0.13.
For the variant A21U U74A A77G, the self-cleavage was determined as 0.6.
Regarding A21U U41C A45G U48C U54C, the self-cleavage was determined as 0.28.
Regarding U25A A64C A77U, the self-cleavage came out at 0.22.
With C23U U26C U58A A75U U80C C81U the figure was 0.07.
With C23A U26C U80C the figure was 0.51; with G24C U26C U41A U66C, 0.1.
On to C23U A47G A65G, for which the self-cleavage was found to be 0.07.
For C23U A28G U66C U78A, the self-cleavage was 0.03.
The result for G22C U43C U60C U72C reads 0.07.
The result for C23G U54A C81G reads 0.28.
For C23U U43C U66C U74C, the self-cleavage came out at 0.11.
The result for A21G U41C U54C A56G reads 0.1.
In the case of A21G U43C A45G U48C, the self-cleavage was 0.24.
A21G U41C U67G G70C: the self-cleavage turned out to be 0.21.
A21G U41A C59A U67C: the self-cleavage is 0.12.
With G24A C27A C39A U51A U54C A56G the figure was 0.12; with U25A A28G C40A U51A A56U U66C U78C, 0.04; with G24A A57U U78C, 0.18.
With A21U U25A U31C the figure was 0.16.
With U25A A28G U72C the figure was 0.51.
Consider G24C U26A U66A U72C, for which the self-cleavage was 0.14.
The result for C23G A56G A57G reads 0.08; that for G24A C38A U51C U54C, 0.14.
With G24C U48C A57G U67C the figure was 0.15.
With A21U A45G C50U, the self-cleavage was 0.18.
Take A21G U51A U72C: the self-cleavage was found to be 0.6.
For the variant A21G U41A A45G U60C A75U, the self-cleavage worked out at 0.17.
The result for G24A U41G U60C U69C reads 0.1.
The result for G22U U69A C79U reads 0.16.
Take A21G U41C A77C U78C: the self-cleavage is 0.75.
With G24A U60G C71A the figure was 0.37; with A21U A45G U58C U72C, 0.05; with A21U U48C G52C, 0.14.
With G22U U25C A35G C40A U43C U66C the figure was 0.23; with A21U A28U U49C U67C, 0.04.
Regarding G24U A45G U80C, the self-cleavage is 0.65.
The result for G22U U26A U60C A64G U80C reads 0.1; that for A21G U41A U54C A75G, 0.06; that for G24A U41A G42C U74C A75G, 0.05.
In the case of G22A G36A A77U, the self-cleavage worked out at 0.07.
For A21U U25C A28G C38U U54A, the self-cleavage is 0.05.
In the case of A21G U41C A56G U58C A64U U72C, the self-cleavage turned out to be 0.15.
In the case of A21U U60C A64U U67A U69C, the self-cleavage came out at 0.12.
As to C23U A64U A65U, the self-cleavage was 0.13.
The result for G24A U31A A35U A65G reads 0.11.
With C23U U31G C44U U51C U54A A65U U74C the figure was 0.02; with U25A A35G U41C U43A U54C A56G, 0.14; with G24U C38U U48C U51A, 0.06.
Turning to A21U U26A U69C, the self-cleavage was 0.07.
On to A21U U41C A45C U51C A57G U67G, for which the self-cleavage was determined as 0.
The result for C23U G24A U25C U31C A35U U41C A56G reads 0.06; that for C23G U41C U51C A56G U76C, 0.24; that for C23G C34G C68G, 0.08.
With A21U G52A A57U C79G the figure was 0.34; with G24C U43C A57G, 0.08; with G22U G36A U41C, 0.08.
Turning to A21U A28G U66C, the self-cleavage is 0.14.
With A21U G36C U41A G52A the figure was 0.07; with G24A U31C A56G C59A, 0.12.
With U25A A35G U41C G42C A57U the figure was 0.02; with G24A U31G C40G A57G A64U U74A, 0.09; with C23A C34A A57U U69C, 0.13.
The result for C23U G42A U60C C79U U80C reads 0.21; that for C23G U41A A47G, 0.48; that for C23G U41C G63C, 0.07.
Turning to A21U U25C U69A, the self-cleavage came to 0.33.
The result for G24A U41C A64U U66C U69A reads 0.13; that for A21U A28U A35G A56U U80A, 0.71.
With C23A U69C A75G the figure was 0.13.
With G24A U69C U72A the figure was 0.1; with G24A C32A G73U, 0.35.
For A21U A64G A77U, the self-cleavage worked out at 0.41.
Turning to C23A U49C G53A U69C U78A, the self-cleavage amounted to 0.18.
With C23A U31C U43C U72C the figure was 0.02.
The result for C23U U41A C44A U60A reads 0.17; that for G24A U48C A64G, 0.08.
On to A21U U31A U41A, for which the self-cleavage amounted to 0.43.
Turning to A21G U43C U60A U69C, the self-cleavage was found to be 0.06.
With U25A A28G A35G U48C C81U the figure was 0.1; with C23G C29A U76C U78A, 0.31; with A21U A35U U49C U60A U72A, 0.05.
For G24U C38G A45U, the self-cleavage was 0.09.
For the variant G24A G33U U69C U72G, the self-cleavage is 0.06.
Take G22U U26C A45G: the self-cleavage turned out to be 0.44.
On to G24U A45U A65U, for which the self-cleavage turned out to be 0.2.
With G24A A28U U51A the figure was 0.16.
The result for G24C U41A U60A U74A reads 0.21.
On to C23G U31G U74C, for which the self-cleavage came out at 0.22.
For the variant U25A A47G U72A, the self-cleavage was 0.19.
The result for G22A A28G A35U U41A reads 0.24; that for A21U U43C A77U, 0.28; that for A21G U41A U76C, 0.23.
With A21G U41C A64U U66C the figure was 0.18; with G24A A75U U78C, 0.06.
The result for G24C U31C A77G reads 0.18; that for G24C C29U G33A A65G U69C, 0.05.
On to U25A A35G U51A U60C U69A U80G, for which the self-cleavage came to 0.06.
The result for C23U U31A A57G reads 0.09; that for A21U C27A A56U U78C, 0.18.
Regarding C23U U43C U48C U60A, the self-cleavage turned out to be 0.13.
Turning to G22A G42U U43C A57U G61A, the self-cleavage was found to be 0.06.
On to G24A U49C A65G U80C, for which the self-cleavage came to 0.09.
With C23U U31C A35G A57G U60A U69C the figure was 0.09; with A21G U51A A56G U74G, 0.44.
With G22U U25C A56G G73A U74C the figure was 0.11; with A21U U31A A47U A57G U67C, 0.07.
With A21G U41C U78A the figure was 0.62; with A21G U54C A77U, 0.76; with C23U U48C A64G, 0.08.
On to A21U U41A A57G U80C, for which the self-cleavage stood at 0.13.
In the case of G22U A28G A35C A45G A56G C79U, the self-cleavage was found to be 0.04.
Take A21U U25C U26C U69C: the self-cleavage turned out to be 0.08.
The result for C23G U31G U43C U51C G52A reads 0.05; that for A21U U41C A45G U49C, 0.09.
With A21U U41C A45U the figure was 0.37.
The result for U25A A45G A64C reads 0.19.
Turning to G22U U43C A45G, the self-cleavage amounted to 0.22.
With G24A A28U C44U U67C the figure was 0.12; with G22A U25C A65G U72C U80C, 0.08; with A21G U58A U67A, 0.09.
A21U U49A U51C A56G: the self-cleavage was 0.31.
The result for G22A A28G U49A reads 0.19; that for C23U A35U G55A A56G C68U G70A U80C, 0.14; that for A21U U69A C71U U80C, 0.05.
Take A21U C27G U67C: the self-cleavage is 0.11.
As to U25A A28G U58A, the self-cleavage worked out at 0.11.
The result for G24A G30U U41C reads 0.11; that for A21U A28G G53A, 0.11.
A21U U60C U67C: the self-cleavage came out at 0.14.
With C23U U58A G70A the figure was 0.12; with C23G U26C U58C, 0.23.
Consider G22A A35U U58C G61A U69C U78C, for which the self-cleavage is 0.05.
With G22C A64U U74A U76C the figure was 0.13.
For A21U U25C A45U A77U, the self-cleavage turned out to be 0.07.
Take A21G U58C U72A: the self-cleavage turned out to be 0.18.
With A21U U26C U49C A57G the figure was 0.11; with G24A A35G U41A U72C A77G, 0.08; with C23U U26A U49A U58G U76A, 0.11.
In the case of C23U U26A U51A C59G, the self-cleavage is 0.12.
Consider C23A U51C G52U U54A U67C U80A C81U, for which the self-cleavage was 0.05.
As to G24A U26C U69A U72C, the self-cleavage amounted to 0.08.
